What all share (assay): Primary Screen for Target Class Profiling of Small Molecule Inhibitors of Methyltransferases
Test [1] has as its target Glycine N-methyltransferase (Homo sapiens) (UniProt Q14749). As to conditions: purified enzyme, MTase-Glo SAH luminescence; measured here: GNMT inhibition; at 40 µM; stronger effect = lower value. In short, it runs like this: (§1)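 Each enzyme was reacted with SAM and its substrate, with compounds tested once at 40 uM; SAH formed was read by MTase-Glo luminescence.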
Test [2] addresses Guanidinoacetate N-methyltransferase (Homo sapiens) (UniProt Q14353). To be noted: purified enzyme, MTase-Glo SAH luminescence; measured here: GAMT inhibition; at 40 µM; stronger effect = lower value. In short, it runs like this:
as §1

Test [3] addresses Histamine N-methyltransferase (Homo sapiens) (UniProt P50135). To be noted: purified enzyme, MTase-Glo SAH luminescence; measured here: HNMT inhibition; at 40 µM; stronger effect = lower value. The essentials: as §1
Test [4] has as its target Nicotinamide N-methyltransferase (Homo sapiens) (UniProt P40261). As to conditions: purified enzyme, MTase-Glo SAH luminescence; measured here: NNMT inhibition; at 40 µM; stronger effect = lower value. In short, it runs like this: as §1
For test [5], the target named is Phenylethanolamine N-methyltransferase (Homo sapiens) (UniProt P11086). To be noted: purified enzyme, MTase-Glo SAH luminescence; measured here: PNMT inhibition; at 40 µM; stronger effect = lower value. The essentials: as §1

Some of the results follow. These are further read-outs of the screen, such as a control signal, another cell line or another target. No call is given for them.
% is scaled to controls: 0 for no effect and ±100 for the full control effect.

`Fc1ccc2nc(CO[C@H]3CN(C4CCC4)C[C@H]3F)[nH]c2c1`: the activity change, negative = inhibition in test [1] is -3.02%; in test [2], -3.41%; in test [3] it was -3.21%; in test [4], -1.64%; in test [5], -4.62%.
Turning to `CC(C)NC(=O)C1COC2(CCCCC2)N1C(=O)Cc1ccccc1` (stereo not given), the activity change, negative = inhibition in test [1] is -1.48%; in test [2] it was -1.67%; in test [3] it was 1.29%; in test [4], -7.15%; in test [5] it was 8.61%.
For `CCOC(=O)c1cc2n(n1)CC(C)(C(=O)NC1CCCC1)N(c1cc(Cl)ccc1OC)C2=O` (stereo not given), in that order: 2%, 3.68%, 6.65%, -1.35% and 3.13%.
For `O=C(NCC1CC1)C1CCCN(C2CCN(Cc3ccncc3)CC2)C1` (stereo not given) the same measures were -2.34%, -1.31%, -0.546%, -9.02% and -4.71%.
As for `O=C(Cc1ccc(F)c(F)c1F)N[C@@H]1CCNC[C@H]1O`, the activity change, negative = inhibition in test [1] is -1.45%; in test [2] it was -0.281%; in test [3], -0.255%; in test [4], -0.412%; in test [5], -0.691%.
For `CC(C)OC(=O)N1CCC(COc2ccc3c(cnn3CCC(=O)O)c2)CC1` the same measures were -4.92%, -0.279%, 0.435%, -9.36% and -4.08%.
In the case of `COc1ccc(-c2nc(C3CC3)nc3c2CCN(CCC(C)C)CC3)cc1`, the activity change, negative = inhibition in test [1] was -6.34%; in test [2], -1.55%; in test [3], -11.2%; in test [4], -13.9%; in test [5], -26.4%.
For `COC(=O)[C@]1(C)CCC[C@@]2(C)[C@@H]3CC[C@@H]4C[C@@]3(CC[C@@H]21)C[C@H]4C(=O)O`, the activity change, negative = inhibition in test [1] was -18%; in test [2], 2.88%; in test [3], 7.16%; in test [4], -12.5%; in test [5], 1.86%.
For `COc1ccc(-c2cc3n(n2)CC(C)(C(=O)NCc2ccccc2)N(c2cccc(F)c2)C3=O)cc1` (stereo not given), in that order: -3.53%, 3.84%, 2.34%, -0.724% and -1.31%.
For `CC(C)CNC(=O)c1ccc2c(=O)n(C(C)C)c3nn(Cc4cccc(F)c4)c(=O)n3c2c1`, in that order: 1.64%, 0%, 7.18%, 0.737% and -0.485%.
`CCc1nc2c(NC(=O)c3ccc(F)c(Cl)c3)cccn2n1`: the activity change, negative = inhibition was -2.35% in test [1]; -12.2% in test [2]; -0.659% in test [3]; -10.8% in test [4]; -19.8% in test [5].
Consider `CCOc1cccc(C2c3cccn3-c3sc4c(c3CN2C(=O)NCCCOC)CCCC4)c1` (stereo not given), for which the activity change, negative = inhibition in test [1] is -5.76%; in test [2], 0%; in test [3], 3.96%; in test [4], -7.84%; in test [5] it was 4.2%.
On to `CN1CCCN(CC(=O)N2CCCC(c3ccc(C(=O)O)cc3)C2)CC1` (stereo not given), for which the activity change, negative = inhibition is 0.171% in test [1]; -3.6% in test [2]; 1.07% in test [3]; 3.12% in test [4]; 0.699% in test [5].
For `Cn1c(=O)n(C)c2cc(S(=O)(=O)N3CCN(C4CCCCC4)CC3)c(Cl)cc21` the same measures were 2.71%, 4.44%, -34%, -3.58% and -5.6%.
For `O=C(c1ccc2c(=O)nc3c(-c4cccc(F)c4)n[nH]n3c2c1)N1CCN(c2ccccn2)CC1` the same measures were -7.55%, 4.3%, -5.14%, -2.4% and -2.09%.
For `O=C1NC2(CCN(Cc3ccccc3)C2)Oc2ccccc21` (stereo not given) the same measures were -8.89%, -6.14%, -2.86%, -9.54% and -4.63%.
For the compound `COC(=O)CC(C)(O)CC(=O)OCc1ccc(O[C@@H]2O[C@H](CO)[C@@H](O)[C@H](O)[C@H]2O)cc1` (stereo not given in full), the activity change, negative = inhibition in test [1] was 3.56%; in test [2] it was 5.59%; in test [3], 5.75%; in test [4], -6.35%; in test [5], 7.15%.
For `CC1CCC2(C(=O)O)CCC3(C)C(=CCC4C5(C)CCC(OC(=O)/C=C/c6ccccc6)C(C)(C)C5CCC43C)C2C1C` (stereo not given), in that order: -3.46%, 0.257%, 10.8%, -13.4% and -9.98%.
On to `CN(CCc1ccccc1)[C@@H]1[C@H](O)[C@H](CO)O[C@@H]1CNS(=O)(=O)c1cccs1`, for which the activity change, negative = inhibition in test [1] was -1.47%; in test [2], -1.71%; in test [3], -4.56%; in test [4] it was -3.8%; in test [5] it was 0.724%.
With `CC(C)=CCC[C@](C)(O[C@@H]1O[C@H](CO[C@@H]2OC[C@@H](O)[C@H](O)[C@H]2O)[C@@H](O)[C@H](O)[C@H]1O)[C@H]1CC[C@]2(C)[C@@H]1[C@H](O)C[C@@H]1[C@@]3(C)CC[C@H](O[C@@H]4O[C@H](CO)[C@@H](O)[C@H](O)[C@H]4O)C(C)(C)[C@@H]3CC[C@]12C`, the activity change, negative = inhibition was -0.711% in test [1]; 9.26% in test [2]; 0.073% in test [3]; -1.62% in test [4]; 2.21% in test [5].
In the case of `CC(C)C[C@H](CO)Nc1nc(S[C@@H](C)c2ccccc2)nc2nc(N)sc12`, the activity change, negative = inhibition was -10.1% in test [1]; -0.839% in test [2]; 2.93% in test [3]; -50.2% in test [4]; -4.36% in test [5].
Take `CO[C@H]1c2cc(C(C)C)c(O)c(O)c2[C@@]23CCCC(C)(C)C2[C@@H]1OC3=O` (stereo not given in full): the activity change, negative = inhibition was -1.8% in test [1]; 1.91% in test [2]; 5.79% in test [3]; -12.1% in test [4]; 2.97% in test [5].
For `CC(C)c1nc2c(c(-c3ccc(O)cc3)n1)CCN(C(=O)C1CCCC1)CC2` the same measures were -1.87%, -0.569%, 2.33%, -9.34% and 0.024%.
Consider `NCCC(=O)N1CCC2(CC1)CN(C(=O)c1ccc(Cl)cc1)CCO2`, for which the activity change, negative = inhibition in test [1] was -5.34%; in test [2], -10.1%; in test [3], -4.29%; in test [4] it was -14.3%; in test [5], -10.2%.
For `CC12CC3CC(C)(C1)CC(N)(C3)C2`, in that order: -2.61%, -1.04%, -5.03%, -12% and -5.24%.
For `Cc1ncc(CN2CCCC2C(=O)Nc2ccc(-c3cccc(F)c3)cc2)[nH]1` (stereo not given), the activity change, negative = inhibition in test [1] was -2.05%; in test [2] it was -2.38%; in test [3] it was -15.8%; in test [4], -6.68%; in test [5] it was -1.67%.
Regarding `O=C1NC(=NC2CCCCC2)C2(CCN(CC3CCCCC3)C2)N1c1cccnc1` (stereo not given), the activity change, negative = inhibition in test [1] was -11.2%; in test [2], -4.68%; in test [3], -2.48%; in test [4], -41.3%; in test [5], -4.91%.
With `CCCn1c(=O)c2ccccc2n2c(SCC(=O)Nc3ccc(C)cc3Cl)nnc12`, the activity change, negative = inhibition in test [1] is -14.1%; in test [2], 0%; in test [3], 1.98%; in test [4] it was -9.99%; in test [5], 0.967%.
Take `O=C(/C=C/c1ccccc1O)O[C@@H]1O[C@H](CO)[C@@H](O)[C@H](O)[C@H]1O`: the activity change, negative = inhibition in test [1] is 4.18%; in test [2] it was 7.95%; in test [3], 5.01%; in test [4] it was -3.94%; in test [5], 8.15%.

The values are drawn from PubChem BioAssay AID1745853 (National Center for Advancing Translational Sciences (NCATS), 2022).
